# Experimental data published in PubChem BioAssay AID652104 (National Center for Advancing Translational Sciences (NCATS), 2013).
# The campaign covered roughly 410,000 compounds. About 7,200 (1.8%) were called active. The shares of active, inactive and inconclusive entries below differ from those in the screen. Calls come from the whole dose curve; as a rule, active = well fitted activation curve with a large enough effect; inconclusive = small, poorly fitted or top-dose-only effect, or another doubt; inactive = no such curve, though single readings can be large or run the other way. No potency is given beside an inconclusive call; the fits are too rough.
# Assay: qHTS of TDP-43 Inhibitors; note: nearly all actives have a fitted effect of over 50% in size; for growth rescue (activation): % of control where 0% means no effect
# Settings: TDP-43 expressing yeast growth rescue, BacTiter-Glo, 24 h; growth rescue (activation): at 46.1 µM (top of the series) unless noted
# In short: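 Growth rescue of TDP-43-toxic yeast measured as ATP luminescence (BacTiter-Glo). Cells grown to mid-log in raffinose, induced in galactose at OD600=0.02, exposed to compound 24 hr at 30 deg C.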
# Potency is the fitted concentration of half-maximal effect; tags give direction and shape of the fitted curve.
SMILES,Potency,growth rescue (activation)
Cc1ccc(-c2nc3ccccn3c2Nc2ccccc2C)s1,"inconclusive [activator, single point]",
COc1ccc(C2CC(c3ccccc3)=NN2C(=O)CN2CCN(Cc3ccccc3)CC2)cc1 (configuration not stated),"inconclusive [activator, full curve, poor fit]",
Nc1ccccc1SCc1csc(-c2ccc(Cl)cc2)n1,active: 12.6 µM,
O=C(c1ccco1)N1N=C(c2cccs2)CC1c1ccco1 (configuration not stated),inactive,
Cc1ccc(C(=O)Nc2nnc(S(=O)(=O)N3c4ccccc4CC3C)s2)cc1 (configuration not stated),inactive,
CN(C)c1ccc(-c2ccnc3c2CC(C)(C(=O)NCc2ccco2)O3)cc1 (configuration not stated),"inconclusive [activator, full curve, poor fit]",
O=C(c1cc2ccccc2o1)N1CCN(S(=O)(=O)c2c(F)cccc2F)CC1,active: 14.1 µM,
COc1cccc(-c2nnc(-c3ccccc3NC(=O)c3cccc(C(F)(F)F)c3)o2)c1,inactive,
Cc1ccc(/C=C/C(=O)c2ccccc2O)cc1,inactive,
COCCCNC(=S)NNC(=O)c1cc(-c2cccnc2)nc2ccccc12,"inconclusive [activator, full curve]",
COc1ccc2c(Cl)cc(NC(=O)Nc3c(C)cccc3C)nc2c1,inactive,
CCc1c(C)sc(NC(=S)Nc2cccnc2)c1C(=O)OC,active: 25.1 µM,
O=C(CSc1nc(Cc2ccccc2)nc2ccccc12)c1ccc2c(c1)OCCO2,inactive,
CS(=O)(=O)c1ccccc1C(=O)Nc1ccccc1Cc1ccccc1,inactive,
CC(C)(C)NC(=O)C(c1cc2ccccc2o1)n1c(=O)c(-c2cc3ccccc3[nH]2)nc2ccccc21 (configuration not stated),inactive,
COc1ccc(Nc2nc3ccc(C)cc3nc2-n2nc(C)cc2C)cc1Cl,"inconclusive [activator, partial curve]",
CC(C)CCOc1cccc(OCC(=O)Nc2ccncc2)c1,"inconclusive [activator, single point]",
COc1ccccc1N1CCN(C(=O)Cn2ncc3c2-c2cc(C)ccc2OC3)CC1,"inconclusive [activator, partial curve]",
Nc1cc(N)nc(SCCOc2ccccc2F)n1,"inconclusive [activator, full curve, poor fit]",
COc1ccc(-c2cc(C)no2)cc1S(=O)(=O)NCc1cccc(C)c1,"inconclusive [activator, single point]",
CCCOc1ccc(F)cc1-c1cc(C(=O)Nc2ccc(F)c(Cl)c2)[nH]n1,active: 8.91 µM,
O=C1Nc2ccccc2SC1c1ccccc1 (configuration not stated),"inconclusive [activator, partial curve]",
O=C(O)c1ccc(S(=O)(=O)NCc2ccc3c(c2)OCO3)cc1,inactive,
Cc1ccc(Sc2ccc(C(=O)N(C)C)cc2[N+](=O)[O-])cc1,"inconclusive [activator, partial curve]",

SMILES,Potency,growth rescue (activation)
Clc1ccc2c(SCC3CO3)c3ccccc3nc2c1 (configuration not stated),,inconclusive: -90.8% [activator]
CCOC(=O)c1sc2ncn(CC(=O)Nc3ccc(F)cc3F)c(=O)c2c1C,inactive,
Cc1ccccc1NC(=O)/C=C/c1ccc([N+](=O)[O-])s1,"inconclusive [activator, partial curve]",
O=C1CC2(CCCCC2)Oc2ccc(O)cc21,"inconclusive [activator, single point]",
COC(=O)c1c(NC(=O)c2ccc(Cl)c(Cl)c2)sc2c1CCCC2,"inconclusive [activator, single point]",
CC(=O)C1=CCC(c2ccccc2Cl)N(S(=O)(=O)c2ccc(C)cc2)C1 (configuration not stated),active: 20 µM,
COc1ccc(Nc2ncnc3c2cnn3Cc2ccccc2)cc1,"inconclusive [activator, single point]",
CCOc1ccc2nc(NC(=O)CCn3cccc3)sc2c1,"inconclusive [activator, partial curve]",
CC1=C(C(=O)OCc2ccc(C)cc2)C(c2ccccc2C(F)(F)F)CC(=O)N1 (configuration not stated),inactive,
Cc1cc(OC(=O)c2ccc(C)c(C)c2)c([N+](=O)[O-])c(=O)[nH]1,"inconclusive [activator, partial curve]",
COc1ccc(-c2onc(C)c2C)cc1S(=O)(=O)NCc1cccs1,inactive,
CC1(C)CN(CCc2ccccc2)C(=O)[C@H]1CC(=O)Nc1ccccc1,"inconclusive [activator, partial curve]",
Cc1ccc(O)c(NC(=O)CCS(=O)(=O)c2nc(-c3cccs3)cc(C(F)(F)F)n2)c1,active: 11.2 µM,
O=C(c1cc(F)ccc1F)C1CCCN(C(=O)c2ccco2)C1 (configuration not stated),"inconclusive [activator, single point]",
Cc1cccc(-n2c(C)cc(C(=O)C(=O)Nc3nncs3)c2C)c1,"inconclusive [activator, partial curve]",
COc1ccccc1NC(=O)c1cc2c(=O)n(Cc3cccs3)ccc2nc1C,"inconclusive [activator, single point]",
COc1ccc(C2c3c(ncn(Cc4ccco4)c3=N)Oc3ccc4ccccc4c32)cc1 (configuration not stated),"inconclusive [activator, partial curve]",
CNS(=O)(=O)c1cccc(C(=O)OCc2csc(-c3ccccc3)n2)c1,active: 15.8 µM,
CC(=O)Oc1ccc(C(=O)Nc2ccccc2C(=O)NCC(C)C)cc1,"inconclusive [activator, full curve]",
Cc1ccc(C(C)C)c(OCC(=O)Nc2cc(-c3nc4ccccc4[nH]3)ccc2C)c1,"inconclusive [activator, single point]",
Cc1ccc(C(c2nnnn2C(C)(C)C)N2CCC(C)CC2)cc1 (configuration not stated),"inconclusive [activator, partial curve]",
O=C(Nc1ccc(Cl)cn1)C1C(c2ccccc2)C1(Cl)Cl (configuration not stated),active: 12.6 µM,
COc1ccccc1-c1nnc(C2CCN(C(=O)c3ccccc3C)CC2)o1,"inconclusive [activator, partial curve]",
Cc1ccc2c(C)c(C(=O)NCC3CCOCC3)oc2c1C,"inconclusive [activator, full curve]",

SMILES,Potency,growth rescue (activation)
Cc1cc2c(cc1S(=O)(=O)Nc1ccc(C(C)C)cc1)OCCN2C,"inconclusive [activator, partial curve]",
COc1ccc(N2CCN(c3ncnc4scc(-c5ccccc5)c34)CC2)cc1,"inconclusive [activator, single point]",
Cn1c(-c2nonc2N)nc2ccccc21,"inconclusive [activator, full curve, poor fit]",
COc1cccc(CN2C(=O)c3cccc(N)c3C2=O)c1,"inconclusive [activator, single point]",
CCOc1ccccc1NC(=O)Cn1c(=O)n(Cc2ccc(OC)cc2)c(=O)c2oc3ccccc3c21,inactive,
CN(C)c1ccc(C(O)c2cc3ccccc3s2)cc1 (configuration not stated),inactive,
CS(=O)(=O)c1ccccc1-c1nc(-c2ccc(C(F)(F)F)cc2)no1,"inconclusive [activator, single point]",
CC(C)C1C(=O)N(Cc2cn(CCC3OCCCO3)nn2)CCS(=O)(=O)N1Cc1ccc(-c2ccc(Cl)c(Cl)c2)cc1 (configuration not stated),"inconclusive [activator, partial curve, poor fit]",
Cc1ccc(Nc2ncnc3ccccc23)cc1,inactive,
Cc1cc(C)cc(NC(=O)CSc2c(C(C)C)cnc3c2c(=O)n(C)c(=O)n3C)c1,"inconclusive [activator, full curve, poor fit]",
Cc1[nH]nc(-c2ccc(O)cc2O)c1-c1ccc(Cl)cc1,active: 20 µM,
CCOc1ccc(OCc2ccc(C(=O)N(CC)CC)cc2)cc1,active: 12.6 µM,
COc1ccccc1-c1cn[nH]c1-c1ccc(OCc2ccccc2F)cc1O,"inconclusive [activator, partial curve, poor fit]",
COc1ccc(O)c(C(=O)c2cnc3nc4ccccc4n3c2)c1,inactive,
Cc1cc(C2=CC(=O)C[C@H](c3ccc4c(c3)OCO4)C2)ccc1F,"inconclusive [activator, partial curve]",
COc1cccc(-c2cc3nc(-c4ccccc4)cc(N4CCN(C(=O)c5ccoc5)CC4)n3n2)c1,active: 15.8 µM,
COc1ccc(CCNc2ncnc3c2c(-c2ccccc2)cn3-c2ccc(Cl)cc2)cc1OC,"inconclusive [activator, single point]",
Cn1c2ccccc2c(=O)c2ccc(NCCc3cccs3)cc21,"inconclusive [activator, full curve]",
Cc1cc(C)nc(NN=C(c2ccccc2)c2ccccc2)n1,"inconclusive [activator, partial curve]",
O=S1(=O)CC(N2CC=CC2)CN1Cc1ccc(F)cc1 (configuration not stated),"inconclusive [activator, partial curve]",
C/C(=N\NC(=O)CCCNc1ccc(C)cc1)c1ccccn1,"inconclusive [activator, single point]",
Cc1ccc(NC(=O)CN2C(=O)C(c3ccc(F)cc3)=NC23CCCCCC3)c(C)c1,inactive,
CCCCOc1ccc(C2C(=O)N(C3CCCCC3)CC(=O)N2C2CCCCC2)cc1 (configuration not stated),"inconclusive [activator, full curve, poor fit]",
CCn1cc(C(=O)OCC(=O)Nc2cc(Cl)ccc2C)c(=O)c2ccc(C)nc21,"inconclusive [activator, partial curve]",
